Measurements: the supplement of paper PMC11417369
± gives the standard deviation of the averaged measurements. This is one part of the list.

test system: PfAP2-G AP2 domain (GST-tagged); experiment: gcPBM binding intensity (ln(normalized median fluorescence intensity)); higher = stronger DNA binding
Summary of the method: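 Binding intensity is the highest Masliner-normalised natural-log median intensity over replicate spots in either probe orientation. To obtain it, GST-tagged P. falciparum DNA-binding domains made in E. coli were incubated for 1 h on an Agilent 4 × 180k array of primer-extended double-stranded 36-bp intergenic genomic probes plus negative controls. Detection used Alexa488 anti-GST antibody with scanning at 488 nm.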

Sequence | gcPBM binding intensity (ln)
TATTACTTATAAATTACACACAAATGATTGAACATT [CACACA_site2259] | 9.935 ± 0.064
TATAATAATTATACATGTACACATTATTTGGATAAA [XGTACX_site5552] | 11.6 ± 0.98
TTTTTATATTTAATGTGTCCTCACTTAAAAGGATGA [XGTACX_site2744] | 11.1 ± 0.81
ATTCTCCAAGTTTGATGTACACATATGACGACGGCG [XGTACX_site4912] | 11.4 ± 0.89
AATATATTTTTTGGTTGTACAGAGATCTTTGTAGAA [XGTACX_site1707] | 11.1 ± 0.72
CATATAGCATAATCATGTACACATACAACAAATAGG [XGTACX_site1589] | 11.5 ± 0.77
AAAAATTATAGAAAAGTGCAATACATGTTACACCAT | 10.1 ± 0.13
TACAATAAGGATAAGTGTACATATGTGCATACATAT [XGTACX_site7188] | 11.1 ± 0.61
TATATATATATATATACACACTATATAATTCAAACA [CACACA_site4712] | 10.1 ± 0.63
ATGAATAAATTAAAAATGCACACTTTGATGGGTACA [CACACA_site2157] | 10.7 ± 0.43
AAACTTGTAAGAAACACACACACACCCATATATATA [CACACA_site797] | 10.1 ± 0.29
AAATTGGGGCTTGTTACACACTTAGTGGGAGTTCTA [CACACA_site4485] | 10.5 ± 0.42
TTACGATTATACAAAAGTACATGTATTACACAATAT [XGTACX_site5138] | 11.3 ± 0.86
TATACCAGTTTTAAAAGTACTTGTGCATAAAAAATA [XGTACX_site4794] | 11.2 ± 0.7
TATATTTTCCTGCAAACACACATATAAATGTGTAGA [CACACA_site533] | 10.1 ± 0.16
TAATAATAAAAATAAACACACATATATATGTATATA [CACACA_site2853] | 9.88 ± 0.099
ATATTTATTTATTTATGTACGCACACAGTTGATATT [XGTACX_site5808] | 11.7 ± 1
CACTATATAAGAACCTGTACTCAATTTTGCAATATA [XGTACX_site7238] | 11.3 ± 0.76
AAATTATATTCAAGTGCATGTAACTTATTATTATAT [TGCATGCA_site526] | 9.94 ± 0.085
AATCTTAAAAATATATGTACTAAAAAAAAAAAAAAT [XGTACX_site6195] | 11.2 ± 0.81

Sequence | gcPBM binding intensity (ln)
AACATGCTCAACTTTTTTTTTTTTTTTTTTTTTTTT [CACACA_negctrl_site1617] | 10.8 ± 0.48
GTAAAAATAAAAACTGGTACACAAGTTGTTATAAAA [XGTACX_site502] | 11.3 ± 0.72
AAAATAAAATAAAAGTGTACGTTTTAAGAACATTGA [XGTACX_site2382] | 11.5 ± 0.95
CTTTTTTGTTAAAGTGTGCGCAATAGTTATAGACTT [GTGCAC_site9670] | 10.7 ± 0.52
TATAATCAATATGTAACACACAAAAGTTATATACTT [CACACA_site7368] | 9.92 ± 0.11
ATATGTATATATAAGGTGCAGAAAGGTGGGCAAAAG | 10.9 ± 0.59
TAAATACAGATATATACACACATATATATATTTTAT [CACACA_site5970] | 9.755 ± 0.007
TACATTTATATATATACACACACACTAATAAAAAAA [CACACA_site8845] | 10.2 ± 0.28
TACAGACTAAAATACACACACACACGCACATATATA [CACACA_site7875] | 10.3 ± 0.17
TTTTTCTTTATTAGCACACATAATATTATATATGTG [CACACA_site2629] | 10.4 ± 0.2
TCATATATTTTAATATGTACACATTTTTTTGGTATA [XGTACX_site8695] | 11.5 ± 0.72
ATAATAAATAAATAATGTACATATGAAAGAATAAAT [XGTACX_site8355] | 11.1 ± 0.49
CTTTTGTCATTCTTTTGTACACAGTTTGAAATATGT [XGTACX_site1457] | 11.2 ± 0.68
AAATAGAGAAATACAAGTACATATCAAACCAATATA [XGTACX_site1192] | 11.2 ± 0.8
ATAAAAAAGAAACAAACACACATACATACAAACAAA [CACACA_site4256] | 10.2 ± 0.22
AAAAAAAACGGACACACACACATACCCATACATACA [CACACA_site5574] | 11.3 ± 0.91
ATATAAATACATAAATGTACTTACCATTTAAATATG [XGTACX_site5254] | 11.2 ± 0.72
TTCACCAGTTGGTAAACATGCAATTTTCCATACAAG [TGCATGCA_site267] | 10 ± 0.15
ATTCTTTTAAAATAGGTGCTAAAAATAATATGTTAC | 10.02 ± 0.085
GCATATGTTTATTGCACACACCAAAAAGAAAACATA [CACACA_site4384] | 10.2 ± 0.21

Sequence | gcPBM binding intensity (ln)
AAAGAAAGAAGAAATTGTACATAATAAATAAGTAAA [XGTACX_site3311] | 10.8 ± 0.57
ATATAAACAATATTTTGTACATAATTTTATGAGCAT [XGTACX_site6933] | 10.8 ± 0.35
AAAGGAAAAAAAAGCACACACAATATTACTTGAAAT [CACACA_site2588] | 9.915 ± 0.092
TATATACACAGACACACACACACATACACGCACATA [CACACA_site6909] | 10.5 ± 0.38
GTACTATACAAAGATGATAATCAATATATATATATA [XGTACX_negctrl_site264] | 10.5 ± 0.6
ATTATTTGTTTAATGAGTACGAAGACAAATTTTACC [XGTACX_site5223] | 11.1 ± 0.48
ATAAAAATAAAAAGTGTGCACACAAAAATATATATA [GTGCAC_site9931] | 10.7 ± 0.3
TAATTTTATTTTATATGTACGCAATACAAATATATA [XGTACX_site8461] | 11.3 ± 0.98
TTAATTGACATAAAAAGTACTCATATAGATATGCAC [XGTACX_site6391] | 11.2 ± 0.71
AAAAAGAACAGAAACACACAAATAAAATAAAATTGT [CACACA_site6921] | 9.77 ± 0.014
AAATGTTAATAAAGGTGTACACAAAATAAAAAAAAT [XGTACX_site463] | 11.7 ± 0.71
AAGATTCATTGGTTCTGTACAAAATAAACACTATAA [XGTACX_site834] | 10.7 ± 0.34
CACCCCCACAGACACACACACACACCCATATATATA [CACACA_site364] | 11.2 ± 0.81
ATATATTATGAAGACTGTACATTTACATGAAAAAAA [XGTACX_site7203] | 10.9 ± 0.45
TTACCAAAAAAATGTAGTACAATATAATATTATTTA [XGTACX_site5750] | 11.6 ± 0.95
AATATATATATTTAAGTGCATAATATTGTAATATTA | 9.91 ± 0.028
CTTCAATTAAAATTCACACATATAAATTAAAATATT [CACACA_site6129] | 9.62 ± 0.042
ACATATTATATATGTGTGCACATATATATATATTTA [GTGCAC_site9591] | 10.3 ± 0.23
